Measurements taken from PubChem BioAssay AID504706 (National Center for Advancing Translational Sciences (NCATS), 2011).
In all, about 320,000 compounds went through this assay and about 200 (0.062%) were called active. This list was built around the results that the source calls inconclusive (neither active nor inactive); the mix of calls is not that of the screen. Calls follow the shape of the dose curve; as a rule, active = well fitted activation curve with a large enough effect; inconclusive = small, poorly fitted or top-dose-only effect; inactive = no such curve, though single readings can be large or run the other way. No potency is given beside an inconclusive call; the fits are too rough.

test: qHTS assay for re-activators of p53 using a Luc reporter; conditions: H1299 p53-A138V BP100-luciferase reporter, luminescence, 24 h; series mostly up to 92.2 µM; also: nearly all actives have a fitted effect of over 45% in size
Excerpt: The p53 tumor suppressor plays a key role in suppression of tumorigenesis and in human carcinogenesis. It is frequently found inactivated in human cancers, mainly by point mutation. These point mutations are found in a wide variety of human cancers and a majority of them affect the DNA binding domain of the protein. The point mutations either alter native p53 conformation or abolish DNA contact. Additionally, cancer cells with p53 mutations are more resistant to chemo-radiation therapies. In order to find activators to reactivate this important protein, a cell-based screen for p53-dependent luciferase-reporter expression was developed. A p53-null H1299 lung cancer cell line was stably co-transfected with a temperature sensitive p53 mutant, p53-A138V, and a p53-responsive BP100-luciferase reporter. This cell model has previously been characterized in a gene chip profiling experiment for p53 activation. By lowering the culture temperature from 37 deg C (mutant p53 conformation) to 32 deg C (w.t. p53 conformation), a 30-60 fold increase in activation of luciferase activity is observed. At assay temperate, 37 deg C, basal reporter expression is very low and after the addition of detection reagent, a luminescent read-out is carried out. NIH Chemical Genomics Center [NCGC] NIH Molecular Libraries Probe Production Centers Network [MLPCN] MLPCN Grant: DA031088-01A1 Assay Provider (PI): Yi Sung, University of Michigan at Ann Arbor
5ul of 1000 cells per well are dispensed in all wells except column 4, into white solid-bottom TC-treated Kalypsys plates. The cells are kept in Opti-MEM and supplemented with 10% FBS and dispensed using a Multidrop (Thermo). Then using the Kalypsys pin-tool, 23nl of compounds are pinned. The compounds are starting concentration at 10mM, with 1:5 dilution, 4 points, and the control compound nocodazole is pinned in column 1 at 25mM, 1:3 dilution, in duplicate, 25mM nocodazole is pinned in column 2. Please note, all concentrations are working concentrations. 5ul of 1pM purified luciferase enzyme is dispensed using the Kalypsys dispenser in column 4. Plates are incubated for 24 hrs at 37 deg C, 5% CO2, and 95% humidity. Then 4ul of the detection reagent Amplite (ABD Bioquest) is added using the Kalypsys dispenser. Plates are incubated for 10 min at ambient room temperature and are then read on the ViewLux (Perkin Elmer) using a clear filter for a luminescent read-out.
Potency is read from the fitted curve at half-maximal effect; tags tell the direction and shape of the fitted curve.

| SMILES | Potency |
| --- | --- |
| COc1ccc(C(C(=O)NC2CCCC2)N(C(=O)c2ccco2)c2ccc3c(c2)OCO3)cc1OC (stereo not drawn) | inconclusive [activator, single point] |
| Cc1ccc(OCc2nc(-c3ccccn3)no2)cc1 | inconclusive [activator, partial curve, poor fit] |
| C=C(C)CSc1nc2ccccc2[nH]1 | inconclusive [activator, full curve] |
| CC1CCN(C(=O)COC(=O)c2cccs2)CC1 | inconclusive [activator, partial curve, poor fit] |
| CCc1ccc2nc(N(CCCN(C)C)C(=O)c3ccc(S(=O)(=O)N4CCc5ccccc5C4)cc3)sc2c1 | inconclusive [activator, single point] |
| c1cnc(N2CCN(c3ccc4ccccc4n3)CC2)nc1 | inconclusive [activator, full curve, poor fit] |
| COc1ccc(-c2cc(=O)c3ccccc3[nH]2)cc1 | inactive |
| Cc1ccsc1C(=O)OCC(=O)c1ccc[nH]1 | inconclusive [activator, partial curve, poor fit] |
| O=C(COc1ccc(Br)cc1)Nc1ccc(-c2nnc(-c3ccco3)o2)cc1 | inconclusive [activator, partial curve, poor fit] |
| Fc1ccccc1CSc1nnc(-c2ccccc2)o1 | inconclusive [activator, partial curve, poor fit] |
| COc1cc(/C=N/n2nnnc2N)ccc1OCC(N)=O | inconclusive [activator, single point] |
| O=C(Nc1ccccc1C(=O)N/N=C/c1ccco1)c1ccc(F)cc1 | inactive |
| Cc1ccc(S(=O)(=O)N2CCC(C(=O)NC3CC(C)(C)NC(C)(C)C3)CC2)cc1 | inconclusive [activator, single point] |
| COc1cc(OC)cc(C(=O)O/N=C(\N)c2ccccn2)c1 | inconclusive [activator, full curve, poor fit] |
| O=C(NC1CCCCCC1)C1CCN(S(=O)(=O)c2ccc(F)cc2)CC1 | inconclusive [activator, single point] |
| CCc1cccc(CC)c1NC(=O)NC1CCCCC1 | inactive |
| O=C(C[n+]1cc(Br)cc2ccccc21)c1ccc(Cl)cc1 | inconclusive [activator, partial curve, poor fit] |
| Cc1ccc(OCCSc2ncnc3nc[nH]c23)cc1 | inconclusive [activator, partial curve] |
| Cc1sc(NC(=O)C2CCCCC2C(=O)O)c(C(N)=O)c1C (stereo not drawn) | inconclusive [activator, partial curve, poor fit] |
| COc1cccc(-c2nnc(NC(=O)C(C)C)o2)c1 | inconclusive [activator, single point] |
| CN(C)c1cccc(NC(=O)CCc2ccccc2)c1 | inconclusive [activator, single point] |
| CCN(CC)S(=O)(=O)c1ccc(C(=O)N2CCN=C2SCc2cccnc2)cc1 | inconclusive [activator, full curve] |
| CC(=O)Nc1nc2ccc(Br)cc2s1 | inconclusive [activator, full curve, poor fit] |
| N#Cc1c(NC(=O)C2CCCO2)sc2c1CCCCCC2 (stereo not drawn) | inactive |
| COc1cc(/C=c2\s/c(=C\C(=O)C(C)(C)C)[nH]c2=O)cc(OC)c1OC | inactive |

| SMILES | Potency |
| --- | --- |
| O=C(NC(=S)Nc1ccccc1F)C1CCCCC1 | inconclusive [activator, partial curve, poor fit] |
| CC1(C)Cc2nc3oc4c(N(CCO)Cc5ccccc5)ncnc4c3cc2CO1 | inactive |
| CCC(C)NC(=O)c1cc(-c2ccc3c(c2)OCO3)on1 (stereo not drawn) | inconclusive [activator, partial curve, poor fit] |
| c1ccc2[nH]c(CSc3nc4ccccc4o3)nc2c1 | inactive |
| Cc1ccc(-n2c(N)c(-c3nc4ccccc4n3C)sc2=S)cc1 | inconclusive [activator, single point] |
| CCCOc1ccc(CSc2ncn[nH]2)cc1 | inconclusive [activator, partial curve] |
| O=C(CNC(=O)c1cccs1)c1ccc(F)cc1 | inconclusive [activator, full curve, poor fit] |
| Cc1ccccc1CSc1nccn1-c1ccccc1 | inactive |
| Cc1ccnc(NC(=O)CSc2cc(=O)n(C)c3ccccc23)c1 | inconclusive [activator, single point] |
| C[C@@H](NC(=O)[C@@H]1Cc2ccccc2CN1)C(=O)NCc1ccco1 | inactive |
| O=C(Nc1ccc(Cl)cc1)c1sccc1-n1cccc1 | inactive |
| CCN(CC)CCOC(=O)c1ccc(NC(=O)CCCN2C(=O)/C(=C\c3cccs3)SC2=S)cc1 | inconclusive [activator, partial curve, poor fit] |
| O=C(c1ccccn1)N1CCCC(N2CCN(c3ccccc3)CC2)C1 (stereo not drawn) | inconclusive [activator, partial curve, poor fit] |
| COc1ccc(CCC(=O)N2c3ccccc3CC2C)cc1 (stereo not drawn) | inconclusive [activator, full curve, poor fit] |
| CC(Sc1nnc(CNc2cccc3ccccc23)n1-c1ccccc1)C(=O)N/N=C/c1ccco1 (stereo not drawn) | inactive |
| O=C(Oc1ccc(-c2ccccc2)cc1)N1CCOCC1 | inconclusive [activator, partial curve, poor fit] |
| S=C(Nc1ccc(Cl)cc1Cl)N1CCCC1 | inconclusive [activator, partial curve, poor fit] |
| c1ccc2[nH]c(CSc3nc4ccccc4s3)nc2c1 | inconclusive [activator, partial curve, poor fit] |
| Cn1c(=O)c2cc(S(=O)(=O)NC(C(=O)NCc3cccnc3)c3ccccc3)ccc2n(C)c1=O (stereo not drawn) | inactive |
| O=C(CCCN1C(=O)/C(=C/c2ccccc2)SC1=S)N1CCOCC1 | inconclusive [activator, full curve, poor fit] |
| Fc1ccc(NC(=S)NCCc2ccc(Cl)cc2)cc1 | inconclusive [activator, partial curve, poor fit] |
| Cc1cc(NC(=O)COC(=O)CCNS(=O)(=O)c2c(Cl)cccc2Cl)no1 | inactive |
| Cc1nc(NC(=O)C2CCCC2)sc1Cc1ccc2c(c1)OCO2 | inconclusive [activator, single point] |
| CCSc1nc(N2CCOCC2)c2c(c1C#N)CCCC2 | inactive |
| NS(=O)(=O)c1cnccc1Nc1ccc(Cl)cc1 | inconclusive [activator, full curve, poor fit] |

| SMILES | Potency |
| --- | --- |
| Cc1sc2ncnc(N[C@@H](Cc3ccccc3)C(=O)O)c2c1C | inactive |
| CC(C)(C)c1ccc(/C=C2\Oc3cc(O)ccc3C2=O)cc1 | inconclusive [activator, full curve, poor fit] |
| CCC(=O)Nc1nnc(-c2cccs2)s1 | inactive |
| CC(C)C(NC(=O)CN1C(=O)c2cccc3cccc1c23)C(C)C | inactive |
| Cc1cccc(NC(=O)N[C@@H](C)C(=O)O)c1 | inactive |
| COc1ccc(/C=C2\SC(=S)N(CCC(=O)Nc3cccc(C(=O)O)c3)C2=O)cc1 | inconclusive [activator, partial curve, poor fit] |
| Cc1ccc2cc(CN(C(=O)c3ccco3)c3ccccc3C)c(=O)[nH]c2c1 | inactive |
| On1onc2c3cc(-c4ccccc4)nc3ccc21 | inconclusive [activator, full curve, poor fit] |
| CSc1ccccc1OCc1cc(C(=O)N2CCSCC2)no1 | inactive |
| O=c1cc(Cl)[nH]c(=O)n1CCNc1ncc(C(F)(F)F)cc1Cl | inconclusive [activator, partial curve, poor fit] |
| CN(Cc1nc(-c2ccc(Cl)cc2)no1)C(=O)CCN1C(=O)[C@H]2CC=CC[C@H]2C1=O | inconclusive [activator, single point] |
| COC(=O)c1ccc(C2NC(=O)c3c(sc(C)c3C)N2)cc1 (stereo not drawn) | inactive |
| C=CCNC(=O)c1scc2c1CCCC2 | inactive |
| COc1ccc(OCC#CCn2ccnc2)cc1 | inactive |
| COc1ccc(-n2nnnc2SCc2nc(N)nc(N3CCOCC3)n2)cc1 | inconclusive [activator, single point] |
| COc1ccc(OCC(=O)NNC(=S)NC(=O)C2CCCCC2)cc1 | inactive |
| Cc1nc(/N=C(\N)N(C)C)[nH]c(=O)c1C | inactive |
| O=C(CCN1C(=O)/C(=C/c2ccccc2)SC1=S)Nc1ccccn1 | inactive |
| O=C(Nc1nc(-c2nc3ccccc3s2)cs1)c1ccco1 | inconclusive [activator, partial curve, poor fit] |
| CCOC(=O)c1c(C)[nH]c(C(=O)N/N=C\c2ccccc2O)c1C | inconclusive [activator, full curve, poor fit] |
| Cc1ccccc1C(=O)NCCCc1ccccc1 | inconclusive [activator, partial curve, poor fit] |
| CC(C)CNC(=O)COC(=O)c1c2c(nc3ccccc13)/C(=C/c1cccs1)CC2 | inconclusive [activator, partial curve, poor fit] |
| COc1cc(C(=O)Nc2cc(C)ccn2)cc(OC)c1OC | inactive |
